Measurements taken from patent EP4144838A1, “ORGANISMS PRODUCING LESS CROTONIC ACID” (Global Bioenergies, priority 2021, dated 2023).

Key:
[1] = tested on: TaFdcV; assay: Cycloadduct formation with TaFdcV followed by UV-Vis spectroscopy; type: binding, Trichoderma atroviride; settings: UV-Vis spectrum before and after a desalting step
[2] = tested on: TaFdc; assay: Adduct formation with TaFdc wild-type followed by UV-Vis spectroscopy; settings: UV-Vis spectrum before and after a desalting step
Experimental: Incubation of 80 µmol TaFdcV with 10 mM 3-methylcrotonic acid led to a complete shift in the corresponding UV-Vis spectrum.
In order to assess the scope for activity with acrylic acids lacking extended conjugation, TaFdc and TaFdcV were incubated with trans-2-pentenoic and trans-2-hexenoic acid, compounds that have previously been reported to undergo some AnFdc-mediated decarboxylation.

## CC(C)=CC(=O)O [3-methylcrotonic acid]
[1]
  adduct formation / binding, reversibility after desalting: long-lived, inhibitory covalent complex with 3-methylcrotonic acid is not formed
[2]
  adduct formation / binding, reversibility after desalting: long-lived, inhibitory covalent complex with 3-methylcrotonic acid is not formed
